# Measured values as given in PubChem BioAssay AID1487 (National Center for Advancing Translational Sciences (NCATS), 2009).
# Screen size: about 200,000 compounds; about 25 (0.01%) were called active. About 23% were inconclusive and are not listed. Calls follow the shape of the dose curve; as a rule, active = well fitted inhibition curve with a large enough effect in the signal ratio, with a control signal flat (not every such curve was filed as active); inconclusive = small, poorly fitted or top-dose-only effect, or effect the other way, or a change in a side signal; inactive = flat fitted curve, though single readings scatter; the % refers to the signal ratio. Only a part is listed here, and it is no random draw.
# Assay: qHTS Assay for Modulators of Lamin A Splicing
# Settings: HeLa LMNA splicing GFP/RFP minigene ratio, 48 h; series mostly up to 46.1 µM; ratio change, negative = inhibition: at the top concentration
# Excerpt: NCGC Assay Overview: Hutchinson-Gilford Progeria Syndrome (HGPS) is a pediatric premature aging disease caused by a spontaneous mutation in the lamin A/C (LMNA) gene. The mutation activates a cryptic splice site in the LMNA pre-mRNA which results in production of a pre-lamin A protein that cannot be processed properly. The mutant protein accumulates in the nucleus and negatively affects numerous cellular functions. Correction of the splicing defect in HGPS patient cells using a targeted oligonucleotide (exo11) leads to reversal of the cellular disease phenotypes. To identify small molecule modulators of aberrant LMNA splicing, a homogenous assay was constructed in HeLa cells that used a GFP containing minigene to report on correction of aberrant splicing in lamin A and a RFP (DsRed2) to report on cell viability, uniformity and nonspecific effects on the assay signal. This assay was adapted to laser-scanning microplate cytometry (Acumen, TTP Labtech) where miniaturization of the assay to a 1,536-well plate format was possible. References: Bowen, W. P.; Wylie, P. G. Application of Laser-Scanning Fluorescence Microplate Cytometry in High Content Screening. Assay Drug Dev Technol 2006;4:209-221. Scaffidi P, Misteli T. Reversal of the cellular phenotype in the premature aging disease Hutchinson-Gilford progeria syndrome. Nat.
# NCGC Assay Protocol Summary: Reagents/Controls: Stable clones expressing DsRed2 and lamin A-EGFP were generated by Cell and Molecular Technologies in S3 HeLa cells. HeLa cells were prepared for the assay when they were 70-90% confluent. The cells were counted and resuspended in Opti-MEM I (no phenol red; Gibco), 2% FBS, 1% penicillin/ streptomycin (Gibco) at concentration of 120 cells/uL concentration. The suspension was passed through a Falcon basket filter with pore size 40um (Beckton Dickson). Control titrations: column […] 1536-well plate contained a sixteen point titration (1:2 dilutions) in duplicate of ancitabine (Sigma: A8598) beginning at 40 uM final concentration. Column 2 contained a sixteen point titration (1:2 dilutions) of cycloheximide beginning at 1.4 mM final concentration. Column 3 contained ancitabine at 40 uM and column 4 contained was the vehicle control (0.5% DMSO final concentration). Assay Steps: 5 uL of HeLa cells were plated in Aurora LoBase black clear bottom (cyclic-olefin polymer) 1536-well plates at a final density of 600 cells/well. Controls and library compounds were added with a 1536-well pin array using the Kalypsys pin-tool. The plates were then incubated for 48 hrs in a cell-culture incubator (37 °C; 5% CO2, 98% humidity). Following incubation the plates were read on the Acumen Explorer using the 488 nm laser. Data was collected on objects between 10 and 100 um in size. Cell objects were defined by a 15 um width x 10 um depth filter. The ratio of the total object intensity in PMT1 (500-530 nm emission; GFP) over PMT3 (575-640 nm emission; RFP) was calculated for analysis. Keywords: NIH Roadmap, MLSCN, MLI, MLSMR, qHTS, NCGC, lamin A, Progeria, RNA splicing.
# % is scaled to controls: 0 for no effect and ±100 for the full control effect; potency is read from the fitted curve at half-maximal effect.
SMILES,"ratio change, negative = inhibition",Potency
N#C/C(=C(/O)CCl)c1nnc2n1CCCCC2,inactive: 43.1% [at 46 µM],–
CCCC(=O)Nc1ccc(OCC(O)CNC(C)C)c(C(C)=O)c1 (configuration not stated),inactive: 2.08%,–
C/C(CCN1CCCCc2nc(C)c(C)cc21)=N\O[C@H](C)c1cn([C@H](CO)Cc2ccccc2)nn1,inactive: 1.83%,–
C[C@@H](C(=O)O)[C@@H]1C[C@@]1(C)[C@@H](NC(=O)OCc1ccccc1)c1ccccc1,inactive: 4.65%,–
COc1ccc(-c2nc(CCNC(=O)c3ccc(Br)o3)cs2)cc1,inactive: -21.3% [at 46 µM],–
Cc1ccc(C2=N/C(=C/c3cccs3)C(=O)N2Nc2ccccc2)cc1,inactive: -11.2%,–
Cn1c(=O)c2c(ncn2CC(O)CO)n(C)c1=O (configuration not stated),inactive: -1.2%,–
CN(C)c1ccc(-c2nc(N(C)C)c3ccccc3n2)cc1,–,active: 12.6 µM
CC(C)C[C@H](NC(=O)[C@@H]1O[C@H]1C(=O)O)C(=O)NCCCCN=C(N)N,inactive: -13.6%,–
Cc1cccc(N=C2NC(=O)/C(=C\c3cccs3)S2)c1,inactive: -17.8%,–
CCN1CCC[C@H]1CNC(=O)c1cc(S(N)(=O)=O)ccc1OC,–,inactive
Nc1ncnc2c1ncn2[C@H]1C[C@H](O)[C@@H](CO)O1,inactive: -2.55%,–
N=S(=O)(O)Cc1noc2ccccc12,inactive: -11.8%,–
O=C(O)c1cc(=O)c2c(OCC(O)COc3cccc4oc(C(=O)O)cc(=O)c34)cccc2o1,–,inactive
C=CCc1ccccc1OCC(O)CNC(C)C (configuration not stated),inactive: -8.71%,–
CN(C)c1ccc(/C=C2\C(=O)Nc3ccccc32)cc1,–,active: 28.2 µM
O=C(CN1CCN(c2ccc(Cl)cc2)CC1)Nc1ccc(F)c(F)c1,inactive: 22.2%,–
CN(C)CCC(c1ccccc1)c1ccccn1 (configuration not stated),–,inactive
COc1c(O)cc2c(c1O)C1OC(CO)C(O)[C@H](O)[C@H]1OC2=O (some centres not stated),inactive: -3.34%,–
CCN(CC)C(=O)N1CCN(C)CC1,inactive: 19.8% [at 46 µM],–
Nc1ccc(N=Nc2ccccc2)c(N)n1,inactive: -5.41%,–
CCCC(C(=O)OCCN(CC)CC)(c1ccccc1)c1ccccc1,inactive: -23%,–
COc1ccc(C(C)n2c(C)c3c(C)nnc(C)c3c2C)cc1 (configuration not stated),inactive: 9.2%,–
COc1ccc2c(C=Nc3c(C)n(C)n(-c4ccccc4)c3=O)c(O)n(Cc3ccco3)c(=O)c2c1,inactive: -4.59%,–

SMILES,"ratio change, negative = inhibition",Potency
COCCCNC(=O)C1CCC(CNS(=O)(=O)c2ccc(OC)cc2)CC1 (configuration not stated),inactive: 20.4% [at 46 µM],–
CN(C)CCCC1(c2ccc(F)cc2)OCc2cc(C#N)ccc21 (configuration not stated),–,inactive
CN(C)CCC(c1ccc(Cl)cc1)c1ccccn1 (configuration not stated),–,inactive
O=C(O)c1cc(-c2ccco2)nc2ccc(Br)cc12,inactive: 16.3%,–
Cc1ccc(C(=O)/C=C\C(=O)c2ccc(C)cc2)cc1,inactive: -0.927%,–
O=C(NCC1CCCCN1)c1cc(OCC(F)(F)F)ccc1OCC(F)(F)F (configuration not stated),inactive: -0.235%,–
CCc1cccc(CC)c1NC(=O)CSc1nc2ccc(N3C(=O)C4C(C3=O)[C@H]3C=C[C@@H]4C3)cc2s1 (some centres not stated),inactive: -13%,–
CCOC(=O)C1=C(C)NC(C)=C(C(=O)OC)C1c1cccc([N+](=O)[O-])c1 (configuration not stated),–,inactive
CC(CN1c2ccccc2Sc2ccccc21)N(C)C (configuration not stated),inactive: -1.91%,–
CC1(C)S[C@H]2C(NC(=O)[C@@H](N)c3ccc(O)cc3)C(=O)N2[C@@H]1C(=O)O (some centres not stated),inactive: 0.39%,–
Cc1ccc(CCNC(=O)CCSCc2ccc(Cl)cc2)cc1,inactive: 2.25%,–
O=C(NN1C(=O)C2C3c4ccccc4C(c4ccccc43)C2C1=O)c1ccccc1 (configuration not stated),inactive: -18.6%,–
OC(CCN1CCCCC1)(c1ccccc1)c1ccccc1,–,inactive
CC(C)NNC(=O)c1ccncc1,inactive: -4.54%,–
O=C1c2cccc(O)c2C(=O)c2c(O)cccc21,inactive: 0.537%,–
COc1ccc(-c2nc3ccccc3s2)cc1NC(C)=O,inactive: -16.7% [at 46 µM],–
CN1CCN2c3ccccc3Cc3ccccc3C2C1 (configuration not stated),–,inactive
CC(C)C1=CC2=CCC3[C@@](C)(CCC[C@@]3(C)C(=O)O)C2CC1 (some centres not stated),inactive: -8.06%,–
CN(C)CC[C@@H](c1ccccc1)c1ccccn1,inactive: -5.77%,–
CCCCN(C(=O)Nc1ccc(Cl)cc1)C1CCN(C(C)=O)CC1,inactive: 8.9%,–
C[N+](C)(C)CCOC(N)=O,inactive: -6.41%,–
COC(=O)[C@H]1C[C@@H]1[C@H](NC(=O)c1ccccc1)c1ccccc1,inactive: 6.01%,–
CC(NCCc1ccc(O)cc1)C(O)c1ccc(O)cc1 (configuration not stated),inactive: -1.78%,–
N=c1nc(N2CCCCC2)cc(N)n1O,–,inactive

SMILES,"ratio change, negative = inhibition",Potency
Clc1ccc(C(c2ccccc2Cl)C(Cl)Cl)cc1 (configuration not stated),inactive: -10.6%,–
Nc1[nH]c(=O)ncc1F,inactive: -3.72%,–
NCCCS(=O)(=O)O,inactive: -2.74%,–
CC(=C/c1ccccc1)/C=N/n1cnnc1,inactive: 41.4%,–
C[C@@H](C(=O)Nc1ccc2ccccc2c1)[C@@H]1C[C@@]1(C)[C@@H](NC(=O)c1cccnc1)c1ccccc1,inactive: -20.7%,–
OC(CCN1CCCC1)(c1ccccc1)C1CCCCC1 (configuration not stated),inactive: -3.25%,–
COC(=O)[C@H]1[C@H]2C[C@H]3c4[nH]c5ccccc5c4CCN3C[C@H]2CC[C@@H]1O,inactive: -12.5%,–
NC(N)=NC(N)=Nc1ccccc1,inactive: 4.51%,–
O=C(NCCO)/C(=C/c1ccc2c(c1)OCO2)NC(=O)c1ccc(Br)cc1,inactive: -14.6% [at 46 µM],–
O=C1N=C(O)CN1/N=C/c1ccc(-c2ccc([N+](=O)[O-])cc2)o1,inactive: -23.4%,–
CCN1CCCC1CNC(=O)c1cc(S(N)(=O)=O)ccc1OC (configuration not stated),inactive: -6.32%,–
O=C(O)c1cc2cc(F)ccc2[nH]1,–,inactive
Cc1ccc(C(=O)N/C(=C\c2cccs2)C(=O)NCCc2c[nH]c3ccccc23)cc1,inactive: -18.5%,–
CN(C)CCCO[C@H]1C([C@H](O)CO)O[C@@H]2OC(C)(C)O[C@@H]21 (some centres not stated),inactive: -18.1%,–
CCC[C@@H]1C[C@@H](C(=O)N[C@@H]([C@H]2O[C@H](SC)[C@H](O)[C@@H](O)[C@H]2O)[C@@H](C)O)N(C)C1,inactive: -29.5%,–
Nc1ccn(C2OC(CO)C(O)C2O)c(=O)n1 (configuration not stated),inactive: -9.96%,–
COC(=O)/C(=C1/Oc2ccc(C(C)(C)C)cc2S1)C(F)(F)F,inactive: -13.5%,–
C[C@@H]1CCC[C@H](C)N1NC(=O)c1ccc(Cl)c(S(N)(=O)=O)c1,inactive: -15%,–
Nc1ccc(S(=O)(=O)Nc2nccs2)cc1,inactive: -7.66%,–
O=C(NC[C@@H]1CCCCN1)c1cc(OCC(F)(F)F)ccc1OCC(F)(F)F,inactive: -11%,–
CC(NC(=O)c1cc2ccccc2o1)c1ccccc1 (configuration not stated),inactive: 3.22% [at 46 µM],–
Cc1cccc(NC(=O)CSc2nc3ccccc3c3nc(CCc4c(C)n[nH]c4C)nn23)c1,inactive: -2.35%,–
CC1(C)SC2C(NC(=O)COc3ccccc3)C(=O)N2C1C(=O)O (configuration not stated),inactive: 11.8% [at 46 µM],–
COc1ccc(Cl)cc1C(=O)NCCc1ccc(S(=O)(=O)NC(=O)NC2CCCCC2)cc1,inactive: -18.3%,–
